Assay results published in publication PMC4336329 (PLoS ONE, 2015).
About 14,000 (4.5%) of roughly 310,000 compounds showed an effect of 50% or more. The effect is printed as a negative number. This is one part of the list.

Biological target: human ether-à-go-go-related gene (hERG) potassium channel (human, UniProt Q12809)
Test: primary screen, population patch clamp on CHO cells stably expressing hERG
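Note: peak tail current of the secondary pulse compared with the same well before compound.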

Chain of human ether-à-go-go-related gene (hERG) potassium channel (Q12809 whole entry, looked up): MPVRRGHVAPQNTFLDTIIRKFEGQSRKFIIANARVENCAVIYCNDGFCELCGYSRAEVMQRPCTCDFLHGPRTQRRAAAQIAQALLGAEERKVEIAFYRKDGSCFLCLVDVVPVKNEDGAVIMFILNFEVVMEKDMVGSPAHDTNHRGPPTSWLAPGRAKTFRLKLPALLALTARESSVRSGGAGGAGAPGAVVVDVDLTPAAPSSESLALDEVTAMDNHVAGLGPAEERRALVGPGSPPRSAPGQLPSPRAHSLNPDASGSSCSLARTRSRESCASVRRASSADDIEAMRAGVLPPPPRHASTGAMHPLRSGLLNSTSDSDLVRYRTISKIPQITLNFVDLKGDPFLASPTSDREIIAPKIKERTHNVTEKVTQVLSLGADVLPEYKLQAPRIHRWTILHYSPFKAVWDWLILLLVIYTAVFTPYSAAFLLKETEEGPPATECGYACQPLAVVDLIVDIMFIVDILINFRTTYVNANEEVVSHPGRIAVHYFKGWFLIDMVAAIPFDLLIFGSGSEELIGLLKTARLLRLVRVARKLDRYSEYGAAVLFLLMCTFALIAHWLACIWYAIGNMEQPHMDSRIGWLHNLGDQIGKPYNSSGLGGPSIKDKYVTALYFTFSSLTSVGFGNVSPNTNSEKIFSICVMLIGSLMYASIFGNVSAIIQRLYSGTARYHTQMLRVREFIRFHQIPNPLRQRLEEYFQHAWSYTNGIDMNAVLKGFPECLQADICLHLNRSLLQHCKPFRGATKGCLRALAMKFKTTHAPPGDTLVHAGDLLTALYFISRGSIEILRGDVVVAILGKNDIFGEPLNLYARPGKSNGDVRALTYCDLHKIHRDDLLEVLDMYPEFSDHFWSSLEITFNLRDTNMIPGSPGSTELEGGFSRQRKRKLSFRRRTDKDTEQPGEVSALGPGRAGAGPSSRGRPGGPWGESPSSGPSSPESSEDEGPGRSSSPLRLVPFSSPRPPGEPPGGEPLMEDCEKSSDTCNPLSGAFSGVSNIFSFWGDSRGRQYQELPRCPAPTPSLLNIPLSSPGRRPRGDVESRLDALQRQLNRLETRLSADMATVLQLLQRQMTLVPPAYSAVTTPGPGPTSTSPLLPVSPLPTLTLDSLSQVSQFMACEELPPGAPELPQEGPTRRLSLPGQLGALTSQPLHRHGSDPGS

SMILES	hERG current change (%, negative = inhibition) at 10uM [%]
COc1ccccc1NC(=O)Cc1noc(CN(C)Cc2cccs2)n1	-15.2
NC(=O)Cn1c(=O)n(CC(=O)N2CCCCC2)c(=O)c2sccc21	27.4
CCc1cc(-c2n[nH]c(=S)n2C(C)c2ccccc2)cs1 (centres unmarked)	-4.68
CCCC(c1nnnn1C(C)(C)C)N1CCN(C(=O)c2ccco2)CC1.Cl (centres unmarked)	-12.8
O=C(CN1CCN(Cc2ccccc2F)C1=O)NCCN1CCOCC1	15.7
CCN/N=C(\Cc1nc2ccccc2[nH]1)c1ccccc1	-0.648
COC(=O)c1ccc(COc2ccc(/C=N/NC(N)=S)cc2)o1	-5.9
O=C(c1ccc(N2C(=O)c3ccccc3C2=O)cc1)N1CCCCC1	10.5
CCN(CC)c1nc(Oc2ccc(=O)[nH]n2)nc(N2CCOCC2)n1	1.91
CCOc1cc(NC(=O)C(C)C)c(OCC)cc1NC(=O)Nc1ccccc1	15.2
Clc1ccc(CO/N=C/c2cccs2)cc1	12.4
CC(=O)c1cccc(N/C=C\c2nnnn2-c2ccc(F)cc2)c1	0.338
O=C(Cc1ccc(S(=O)(=O)N2CCOCC2)s1)OCc1ccc(Cl)cc1	-20.1
CC(C)N(Cc1ccccc1)S(=O)(=O)N(C)C	11.3
COc1cc(NC(=O)c2ccccc2)c(OC)cc1NC(=O)Cc1ccccc1	-1.3
N=C1c2ccccc2CN1NC(=O)c1cccc(S(=O)(=O)N2CCOCC2)c1	-40.6
CC1=C(Nc2ccc(C(=O)O)cc2)C(=O)c2ccccc2C1=O	26.1
O=c1[nH]c2cc3c(cc2cc1CN(Cc1cccnc1)C(=S)NCc1ccco1)OCO3	-52.5
COc1ccc(/C=C(\NC(=O)c2ccccc2)C(=O)OC[C@@H]2CCC[N+]3(C)CCCCC23)cc1OC.[I-] (some centres unmarked)	23.3

SMILES	hERG current change (%, negative = inhibition) at 10uM [%]
Cc1ccc(C(=O)C2=C(O)C(=O)N(CC3CCCO3)C2c2ccccc2F)o1 (centres unmarked)	19.2
COc1cc(C2=NOC(C(=O)NCc3ccc(F)cc3)C2)cc(OC)c1OC (centres unmarked)	-23
O=C(c1cc(-c2cccc(Cl)c2)on1)N1CCCCCC1	-4.17
O=C(OCCN1CCCCC1)c1ccc(O)cc1	-35.4
Cc1nn(CC(=O)N(C)C2CCC(C)CC2)c(C)c1S(=O)(=O)N(C)C (centres unmarked)	-7.54
CNS(=O)(=O)c1ccc(NC(=O)Nc2ccc3c(c2)OCO3)cc1	17.8
COc1ncnc2c1cnn2-c1ccccc1	20
CC(=O)N1CCc2cc(S(=O)(=O)NC3CCCc4ccccc43)ccc21 (centres unmarked)	11.4
CCOC(=O)C(C)Sc1ncnc2c1nnn2-c1ccc(F)cc1 (centres unmarked)	0.897
O=C(c1c[nH]c2ccccc12)N1CCN(c2ccccc2)CC1	-8.34
O=C(O)/C=C/C(=O)N1N=C(c2ccco2)CC1c1ccco1 (centres unmarked)	20
CC1(C)Cc2c(cnn2-c2ccc(F)cc2)C(NC(=O)CCN2CCCCO2)C1 (centres unmarked)	-26.5
Cc1ccc(NCC(=O)N/N=C/c2ccc(-c3cccc(C(F)(F)F)c3)o2)cc1	1.52
Cc1c(C)n(C(=O)CSc2nncn2C)c2ccccc12	1.49
CCOc1ccc(C(=O)N2CCN(S(=O)(=O)c3cccs3)CC2)c(OCC)c1	-39.1
CC1=C(C(=O)Nc2ccc(C)cc2C)C(c2ccc([N+](=O)[O-])cc2)n2ncnc2N1 (centres unmarked)	-1.29
CCOC(=O)C1(C)NC(c2ccco2)C2C(=O)N(c3ccc(C)cc3)C(=O)C21 (centres unmarked)	11.3
COc1ccc(CCNC(=O)CNC(=O)Cn2cnc3sc(C)c(C)c3c2=O)cc1OC	-8.02
OCC1(Cc2ccccc2F)CCCN(Cc2c(F)ccc(F)c2F)C1 (centres unmarked)	-55.5

SMILES	hERG current change (%, negative = inhibition) at 10uM [%]
O=C(CNC(=O)c1cccs1)NCC(=O)OCc1ccccc1Cl	2.85
Nc1ccc(Sc2ccccc2Cl)nc1	-10.5
O=C(N/N=C/c1cccc([N+](=O)[O-])c1)C1CC(=O)N(c2ccc(Cl)cc2)C1 (centres unmarked)	-82.1
CC(C)(C)N1CC(c2nc3ccccc3n2CCOc2ccccc2)CC1=O (centres unmarked)	-26.1
CN1CCN(c2c(C#N)c(C(F)(F)F)nn2C)CC1	10.6
COc1ccccc1/C=N/NC(=O)c1cc2c(OC)c(OC)ccc2[nH]1	14.1
COc1ccc(/C=N/Nc2nn3cnnc3c3ccccc23)cc1	-30.8
COCCn1c(SC(C)C(=O)NCC2CCCO2)nc2sc3c(c2c1=O)CCC3 (centres unmarked)	-8.18
O=C1NC(=O)N(CCc2ccc(F)cc2)C(=O)/C1=C/c1ccco1	12.4
CN(C)c1nc(-c2cccnc2)nc(-c2ccc(Cl)cc2)c1C#N	26.9
CCN(C(=O)COC(=O)/C=C/c1cnc2ccccc2n1)c1ccccc1	3.24
Cc1ccc(S(=O)(=O)NCC(C)NS(C)(=O)=O)cc1 (centres unmarked)	10.5
Cc1ccc(C2(c3ccc(C)cc3)CC2C(=O)Nc2ccc([N+](=O)[O-])cc2O)cc1 (centres unmarked)	-2.42
CC(=O)Nc1ccc(S(=O)(=O)N2CCNC(=O)CC2)cc1	7.85
COc1cccc(-n2c(SCC(=O)Nc3cc(C)on3)nc3c([nH]c4ccccc43)c2=O)c1	-3.95
CCOc1ccc(/C=C2/Sc3ccc(C(=O)N4CCN(C(=O)c5ccco5)CC4)cc3N(C)C2=O)cc1OC	-53.9
Cc1ccc(C(c2nnnn2CS(=O)(=O)c2ccc(C)cc2)N2CCCC2)cc1 (centres unmarked)	18.6
Cc1ccc(S(=O)(=O)NCCN2CCOCC2)cc1C	-2.28
